From PubChem BioAssay AID1461 (National Center for Advancing Translational Sciences (NCATS), 2008)
Hit rate of the full screen: of about 220,000 compounds, about 2,300 (1%) were called active. Inconclusive means that the source gave no clear call. Such entries were picked first, then a sample of the others. Calls come from the whole dose curve; as a rule, active = well fitted inhibition curve with a large enough effect; inconclusive = small, poorly fitted or top-dose-only effect, or effect the other way; inactive = no such curve, though single readings can be large or run the other way. No potency is given beside an inconclusive call; the fits are too rough.

What follows are compounds tested against Neuropeptide S receptor (Homo sapiens) (UniProt Q6W5P4) (assay: qHTS Assay for Antagonists of the Neuropeptide S Receptor: cAMP Signal Transduction). Conditions: CHO-NPSR cells, cAMP TR-FRET, antagonist mode; activity change, negative = inhibition: at 38.3 µM (top of the series) unless noted.
% is set by controls: 0 for no effect and ±100 for the full control effect; potency is the fitted concentration of half-maximal effect; tags give direction and shape of the fitted curve.
Note: nearly all actives have a fitted effect of over 50% in size.

Chain of UniProt Q6W5P4 (Q6W5P4 whole entry, looked up): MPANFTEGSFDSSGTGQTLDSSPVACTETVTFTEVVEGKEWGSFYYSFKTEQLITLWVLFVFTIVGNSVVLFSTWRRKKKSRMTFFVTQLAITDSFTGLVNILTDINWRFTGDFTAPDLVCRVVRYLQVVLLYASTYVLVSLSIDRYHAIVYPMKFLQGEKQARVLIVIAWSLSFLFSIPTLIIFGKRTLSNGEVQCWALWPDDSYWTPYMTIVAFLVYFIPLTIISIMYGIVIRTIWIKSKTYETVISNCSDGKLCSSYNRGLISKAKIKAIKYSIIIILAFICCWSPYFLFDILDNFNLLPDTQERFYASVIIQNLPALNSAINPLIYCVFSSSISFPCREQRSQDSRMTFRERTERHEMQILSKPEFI

SMILES | Potency | activity change, negative = inhibition
O=C(N/N=C\c1ccc(Cl)s1)C1COc2ccccc2O1 (stereo not drawn) | inconclusive [inhibitor, single point] | –
Cc1ccc(C(=O)Nc2nc(C(C)(C)C)cs2)s1 | inconclusive [inhibitor, single point] | –
CCC(=O)c1ccc2c(c1)N(CCCN(C)C)c1ccccc1S2 | inconclusive [inhibitor, partial curve] | –
O=C(OC1CCCCC1)c1ccc(NC(=O)C2CCCCC2)cc1 | inconclusive [inhibitor, single point] | –
CCN(CC)CCNC(=O)c1ccc(N2CCCCC2)c(NS(=O)(=O)c2ccc(C)cc2)c1 | – | inactive: -12.2% [at 46.1 µM]
O=[N+]([O-])c1cccnc1N1CCC(c2cc(-c3ccc(Cl)cc3Cl)n[nH]2)CC1 | inconclusive [inhibitor, single point] | –
CN(C)CCN(C(=O)c1ccccc1Cl)c1nc2c(Cl)cccc2s1 | inconclusive [activator, single point] | –
COc1ccc(N(CC(=O)Nc2cc(C)ccc2C)S(=O)(=O)c2ccccc2[N+](=O)[O-])c(OC)c1 | – | inactive: -24.6%
CC(C)(C)NNC(=S)Nc1cccc(C(F)(F)F)c1 | inconclusive [inhibitor, single point] | –
Cc1cc2c(cc1C)[n+](C)cn2CC(O)COCc1ccccc1 (stereo not drawn) | – | inactive: -3.27% [at 46.1 µM]
Oc1cccc(-c2nc3ccccc3s2)c1 | – | inactive: -5.33% [at 46.1 µM]
Cc1cc(C)n2nc(SCc3nc4ccccc4[nH]3)nc2n1 | – | inactive: -2.63% [at 46.1 µM]
Cc1c(NC(=O)CSCc2ccc(Br)cc2)c(=O)n(-c2ccccc2)n1C | – | inactive: 3.57%
O=S(=O)(c1ccc(-c2nnc(SCc3ccccc3)o2)cc1)N1CCCC1 | inconclusive [inhibitor, partial curve] | –
O=C(O)c1cc(N2C(=O)C3C4C=CC(C4)C3C2=O)ccc1NCc1cccnc1 (stereo not drawn) | – | inactive: -8.73% [at 46.1 µM]
CC(C)CCOc1ccc(C(=O)N2CCCC2C(=O)O)cc1 (stereo not drawn) | inconclusive [activator, single point] | –
CCC(=O)NC(=S)Nc1ccc(NC(=O)c2ccco2)c(Cl)c1 | – | inactive: -27.6%
Cc1cccc(N2CCN(C(=O)c3ccc4nc(-c5ccco5)c(-c5ccco5)nc4c3)CC2C)c1 (stereo not drawn) | inconclusive [inhibitor, single point] | –
O=C(O)c1cc(N2N=C(C(F)(F)F)/C(=C/C=C/c3ccco3)C2=O)ccc1Cl | inconclusive [activator, single point] | –
COc1ccc(C2C(C#N)=C(N)N(c3sc4c(c3C#N)CCCC4)C3=C2C(=O)CC(C)(C)C3)cc1OC (stereo not drawn) | inconclusive [inhibitor, partial curve] | –
Clc1ccc(-n2nnnc2-c2cnc(-c3ccccn3)nc2-c2cccs2)cc1 | inconclusive [inhibitor, partial curve] | –
O=C(COc1ccc2c3c(c(=O)oc2c1)CCC3)NC1CCCCC1 | inconclusive [inhibitor, partial curve, poor fit] | –

SMILES | Potency | activity change, negative = inhibition
Cc1[nH]c2c(ccc3ccccc32)c1C1C(CCN)C1(C)C (stereo not drawn) | inconclusive [inhibitor, single point] | –
CN(C)c1ccc(-c2nn3c(C4CCCCC4)nnc3s2)cc1 | inconclusive [inhibitor, single point] | –
NS(=O)(=O)c1ccc(Nc2nc(-c3ccc(O)cc3O)cs2)cc1 | – | inactive: -18% [at 46.1 µM]
CC1=CC(C)(C)N2C(=O)C3(C(C#N)=C(N)Oc4cc(O)ccc43)c3c(C)c(C)cc1c32 (stereo not drawn) | inconclusive [inhibitor, single point] | –
Cc1nc(NCCc2ccccc2F)c(C#N)c(C)c1[N+](=O)[O-] | – | inactive: -22% [at 46.1 µM]
COC(=O)C1=C(C)N=C2SC(C#N)=C(N)N2C1c1cccc(OC)c1 (stereo not drawn) | – | inactive: -23.8% [at 46.1 µM]
O=C(Nc1sc2c(c1C(=O)NCc1ccco1)CCCC2)c1ccc2c(c1)OCO2 | – | inactive: -4.15% [at 46.1 µM]
Cc1cccc(C)c1NC(=O)c1cn(-c2ccccc2)nc1-c1ccccc1 | – | inactive: -20.9%
CNS(=O)(=O)c1cccc(C(=O)OCC(=O)Nc2sc3c(c2C#N)CCCCC3)c1 | inconclusive [inhibitor, single point] | –
CC(/C=N/NC(=O)c1n[nH]c2c1CCC2)=C\c1ccccc1 | inconclusive [activator, full curve] | –
O=C(CN1CCN(S(=O)(=O)c2ccc(Br)cc2)CC1)N/N=C/c1ccc(Cl)c([N+](=O)[O-])c1 | inconclusive [inhibitor, single point] | –
O=S(=O)(Nc1ccc(S(=O)(=O)N2CCCCCC2)cc1)c1cccs1 | inconclusive [inhibitor, single point] | –
Cc1cccc(C)c1NC(=O)c1sccc1SCc1cccc(C(F)(F)F)c1 | inconclusive [inhibitor, partial curve] | –
CCCC[n+]1ccn(C2=C([O-])c3ccccc3C(=O)/C2=N\S(=O)(=O)c2ccc(Cl)cc2)c1 | inconclusive [inhibitor, single point] | –
N#Cc1ccccc1Cn1cc(/C=C/[N+](=O)[O-])c2ccccc21 | inconclusive [inhibitor, single point] | –
Cc1ccc(-c2nnc(OCC3CCCO3)c3ccccc23)cc1 (stereo not drawn) | inconclusive [activator, partial curve] | –
COc1ccc(CCC(=O)Nc2ccc(C)c(S(=O)(=O)N(C)C)c2)cc1OC | – | inactive: 5.22%
COc1ccccc1CN1C(=O)CCC1(C)C(=O)NC1CCCCCC1 (stereo not drawn) | inconclusive [inhibitor, single point] | –
COc1ccc(C(=O)CN2C(=O)C(C)(C)Oc3ccc(C(=O)N4CCCCCC4)cc32)cc1 | inconclusive [inhibitor, single point] | –
O=C(N/N=C/c1cc([N+](=O)[O-])ccc1N1CCCCCC1)c1ccccn1 | inconclusive [inhibitor, single point] | –
N=C1/C(=C\c2coc3ccccc3c2=O)C(=O)N=C2SC(c3ccncc3)=NN12 | inconclusive [inhibitor, single point] | –
